This is one part of the list.

The target of the assay is T1, OsWOX13 (Oryza sativa, UniProt Q5QMM3 1-267).
T1 sequence: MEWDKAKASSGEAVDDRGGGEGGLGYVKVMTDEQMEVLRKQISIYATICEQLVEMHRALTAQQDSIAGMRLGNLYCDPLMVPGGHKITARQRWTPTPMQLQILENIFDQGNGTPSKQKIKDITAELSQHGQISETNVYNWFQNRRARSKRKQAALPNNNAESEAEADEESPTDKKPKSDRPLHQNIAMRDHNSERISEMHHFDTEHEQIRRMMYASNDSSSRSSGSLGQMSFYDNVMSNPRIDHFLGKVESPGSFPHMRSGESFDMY
The assay is described as follows: protein-binding microarray (RPBM); PBS, 2% BSA, 51.3 ng/ul salmon testes DNA, 50 uM zinc acetate, 200 nM TF, 25 C, 1 h; high values mean tight binding. The conditions noted are these: protein: recombinant; tags: N-terminal polyhistidine and DsRed monomer fusion (pET32a); label: CyDye5-dUTP incorporated in the synthesized complementary strand; 3' TTTTT single-stranded linker to array surface; dsDNA, one strand shown. The procedure, abridged: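 The binding signal is fluorescence intensity per feature, in arbitrary units, read on an Axon 4000B scanner. Polyhistidine- and DsRed-tagged transcription factors (N-terminal fusions) from E. coli BL21-CodonPlus were purified on Ni–NTA and applied at 200 nM for 1 h at 25 °C to a double-stranded, BSA-blocked custom Agilent array in buffer with 50 µM zinc acetate.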
“ATGAGATGACTGATTTGCATGTGTTTAGGCACTGTAGTCACGGAGTCACCTAGTGCAG”: the binding signal is 30100 fluorescence intensity (a.u.).
“TGTACGGTCTACCTAATTAATTTGTAGCACAAGAAAACTGCGGAGTCACCTAGTGCAG”: the binding signal is 8070 fluorescence intensity (a.u.).
Under “CGTAATGAAATAAATTTAGTGCTATACGTATTGTTATATACGGAGTCACCTAGTGCAG” stands 13800 fluorescence intensity (a.u.); under “ACTAATTAAGAATTGTACTTCAGTTTTCTATAATATTGTCCGGAGTCACCTAGTGCAG”, 21600 fluorescence intensity (a.u.); under “AATGATTTTGATTCGGAAGAAACAAACGAAATGACATTTTCGGAGTCACCTAGTGCAG”, 6950 fluorescence intensity (a.u.).
Under “ATGACGATGATGGACTTGCTCGTCGTCTCGATGAAGAGCTCGGAGTCACCTAGTGCAG” stands 4400 fluorescence intensity (a.u.); under “TTTTGCACGTAATTGGCATGCCAGCTTGTATAAACCATATCGGAGTCACCTAGTGCAG”, 7600 fluorescence intensity (a.u.); under “ACAAATTATTGGGCCTCCATGCCTCTTAGCCCTCGACGTCCGGAGTCACCTAGTGCAG”, 6370 fluorescence intensity (a.u.).
Under “GGTAACTGGGAGGAAATTCCTCATTTACTTCGCCGAAACACGGAGTCACCTAGTGCAG” stands 5820 fluorescence intensity (a.u.); under “GATGGATGGTCTGCCTAATTTCAATTTGTCTCCCAAACTACGGAGTCACCTAGTGCAG”, 3270 fluorescence intensity (a.u.).
Take “GGCAAACATATACTCCCAATCAAACACAAGCCATCAGGCCCGGAGTCACCTAGTGCAG”: the binding signal was 5730 fluorescence intensity (a.u.).
Under “CGCGCGTGTGATTGGCTGGCTTGGTCAGGGTCAACGTTGGCGGAGTCACCTAGTGCAG” stands 48900 fluorescence intensity (a.u.); under “CAAAGAGGCTAATTGAAGGATTGGAACATGACCTGGAAAACGGAGTCACCTAGTGCAG”, 16000 fluorescence intensity (a.u.).
For “TATGAATAATATCCTAATCATTGGGTTAGGAATAGCCTTACGGAGTCACCTAGTGCAG”, the binding signal was 3490 fluorescence intensity (a.u.).
On to “GATTAATTAGGCTTAATAAATTCGTCTCGAAGTTTACAGGCGGAGTCACCTAGTGCAG”, for which the binding signal was 45200 fluorescence intensity (a.u.).
On to “AATTAATATTTAATTAATTATATACTAATGACTCTTCTTGCGGAGTCACCTAGTGCAG”, for which the binding signal is 32500 fluorescence intensity (a.u.).
With “ACATGATTGATACGTTACGCAAATAAACTACAATACTTTACGGAGTCACCTAGTGCAG”, the binding signal was 44900 fluorescence intensity (a.u.).
With “ATTAAATATAATCAGTTTTAATAAGGTGACACCATGGCAGCGGAGTCACCTAGTGCAG” the figure was 6380 fluorescence intensity (a.u.); with “CATGGTCAATCTACTCGTTAACGTACATTCACGGTTATTTCGGAGTCACCTAGTGCAG”, 9160 fluorescence intensity (a.u.).
As to “CATGTCATCAAATTTGTTTGAATGGCATCTCATTTATTGACGGAGTCACCTAGTGCAG”, the binding signal was 3240 fluorescence intensity (a.u.).
Under “GTCATTGTCCAAAGCGTCAATTAAAATGAAACTGGAGGTACGGAGTCACCTAGTGCAG” stands 3150 fluorescence intensity (a.u.); under “TCAATCACAGTTAATTAATCCTTAAACAGCAAAGATAATCCGGAGTCACCTAGTGCAG”, 28700 fluorescence intensity (a.u.); under “TCTATCTATCTATCTATCTATTATCTATCTTCTATTATATCGGAGTCACCTAGTGCAG”, 11200 fluorescence intensity (a.u.).
For the sequence “TTAAATTGACTATAGATGATTTGGAACTAGTGGTGAGCTACGGAGTCACCTAGTGCAG”, the binding signal is 44000 fluorescence intensity (a.u.).
Under “CAAAATATACTAATTTCTTCAAGCAAAGGTCCAGCCCATCCGGAGTCACCTAGTGCAG” stands 3240 fluorescence intensity (a.u.); under “CTTGCGCGCGTGATTTGCCATTGCCACATGTCCGATTGGGCGGAGTCACCTAGTGCAG”, 3720 fluorescence intensity (a.u.); under “GTAGATTGGGCCTCCAGCTAGAAAGCATAAAGTGGGCCTACGGAGTCACCTAGTGCAG”, 10700 fluorescence intensity (a.u.).
With “TGTCCAGCCAATTAACTAATTAAGCCAATCAATGCAATGGCGGAGTCACCTAGTGCAG” the figure was 35800 fluorescence intensity (a.u.).
With “GATATTGACGGATTAATTGAACCTTTCATTTGTGGCGCATCGGAGTCACCTAGTGCAG” the figure was 41400 fluorescence intensity (a.u.); with “GATGGGAGGGGTGGTGGTTGAATACGCGTGACAGTAGGGGCGGAGTCACCTAGTGCAG”, 4530 fluorescence intensity (a.u.); with “ATAACTAATCATGTGGTCATGTGCACTAGAACCAGCACCGCGGAGTCACCTAGTGCAG”, 6800 fluorescence intensity (a.u.).
On to “ACTTGACTAATCATAATTCCAAATTGTCTAGAAATTCCATCGGAGTCACCTAGTGCAG”, for which the binding signal is 21500 fluorescence intensity (a.u.).
Under “GAGCTTAATTTACTAATGTACAAGAACAAATACTCCATATCGGAGTCACCTAGTGCAG” stands 7910 fluorescence intensity (a.u.); under “TTCCGTTGATTATCACGGGAATAGCTATCCATTTTCTGAACGGAGTCACCTAGTGCAG”, 21500 fluorescence intensity (a.u.).
With “TCGATTAAATTGATGTGCAAAGTATTGTTAACAGTAAGTTCGGAGTCACCTAGTGCAG” the figure was 31300 fluorescence intensity (a.u.); with “ATAATTTGCACAATAGATTAATCTTTTAAGCACTAAGTGACGGAGTCACCTAGTGCAG”, 8210 fluorescence intensity (a.u.); with “TCAGATTGTTATTTGATACATCTAGATAGAAGAGGAAGTTCGGAGTCACCTAGTGCAG”, 7870 fluorescence intensity (a.u.).
With “TTTTGTGATTTTCCAAAGAATTAATCTTCGAGTGGGCTAACGGAGTCACCTAGTGCAG” the figure was 3970 fluorescence intensity (a.u.).
“GTGTAATTGCCGGGCGGAAAGCGCGGGTAATGAGGTGAGGCGGAGTCACCTAGTGCAG”: the binding signal was 13100 fluorescence intensity (a.u.).
Under “ACGATTGAAACATTTTCGATCTACTTAGTGAAATAATTCCCGGAGTCACCTAGTGCAG” stands 4210 fluorescence intensity (a.u.); under “TTTCAACCAATCATATCCATCACTCATATAACTTCACGTCCGGAGTCACCTAGTGCAG”, 11900 fluorescence intensity (a.u.); under “CAAATCATTCGTTGTTGATTTGTTTGGATAACCGGGGTATCGGAGTCACCTAGTGCAG”, 32100 fluorescence intensity (a.u.).

(Values after paper PMC7819943, “Rice protein-binding microarrays: a tool to detect cis-acting elements near promoter regions in rice”.)
